{
  "source": "the antibiotic and cytotoxicity screens of Wong et al. (2023)",
  "note": "This is one part of the list.",
  "data": [
    {"tested_on": "HSkMC (human skeletal muscle cells)", "experiment": "cytotoxicity call (relative viability < 0.9)", "conditions": "10 µM", "values": [
      {"smiles": "CCC[C@@H](O)C#Cc1cnc2c(c1)C(=O)N([C@H](C)CO)C[C@H](C)[C@H](CN(C)C(=O)NC1CCCCC1)O2", "cytotoxicity call": "inactive"},
      {"smiles": "N#CCC1CCNCC1", "cytotoxicity call": "inactive"},
      {"smiles": "C[C@@H]1CN([C@H](C)CO)C(=O)c2cc(NC(=O)Cc3ccccc3)ccc2O[C@@H]1CN(C)S(C)(=O)=O", "cytotoxicity call": "inactive"},
      {"smiles": "COc1ccc(NC(=O)Nc2cccc3c2O[C@@H](CN(C)Cc2ccc(C(=O)Nc4ccccc4N)cc2)[C@@H](C)CN([C@H](C)CO)C3=O)cc1", "cytotoxicity call": "inactive"},
      {"smiles": "COc1ccc(-c2cnc3c(c2)C(=O)N([C@@H](C)CO)C[C@H](C)[C@H](CN(C)C(=O)Cc2cccnc2)O3)cc1", "cytotoxicity call": "inactive"},
      {"smiles": "Cc1noc(C)c1S(=O)(=O)N(C)C[C@@H]1OCCCC[C@H](C)Oc2ccc(NS(C)(=O)=O)cc2C(=O)N([C@H](C)CO)C[C@@H]1C", "cytotoxicity call": "inactive"},
      {"smiles": "CCCCC/C=C\\C/C=C\\C/C=C\\C/C=C\\CCCC(=O)O", "cytotoxicity call": "inactive"},
      {"smiles": "C[C@@H]1CN([C@@H](C)CO)C(=O)c2cccc(NC(=O)Nc3cccc4ccccc34)c2O[C@H]1CN(C)S(=O)(=O)c1ccc(Cl)cc1", "cytotoxicity call": "inactive"},
      {"smiles": "C[C@@H]1CN([C@@H](C)CO)C(=O)c2cccc(NC(=O)c3ccc(-c4nccs4)cc3)c2O[C@H]1CN(C)C(=O)Nc1ccc(C(F)(F)F)cc1", "cytotoxicity call": "inactive"},
      {"smiles": "CCCN1C[C@H](C(=O)O)CCC1=O", "cytotoxicity call": "inactive"},
      {"smiles": "CC(C)(C)[S@@+]([O-])N1Cc2cc(C(=O)O)nc(-c3ccc(Br)cc3)c2[C@H]1CCO[Si](C)(C)C(C)(C)C", "cytotoxicity call": "inactive"},
      {"smiles": "S=C=Nc1ccc(N=C=S)cc1", "cytotoxicity call": "inactive"},
      {"smiles": "COc1ccc([Si](C)(C)[C@@H]2[C@@H](CCn3cc(CCO)nn3)O[C@]3(C(=O)N(Cc4ccc(N5C(=O)c6cccc7cccc5c67)cc4)c4ccccc43)[C@H]2C)cc1", "cytotoxicity call": "active"},
      {"smiles": "COc1ccc(NC(=O)Nc2ccc3c(c2)CC(=O)N([C@H](C)CO)C[C@@H](C)[C@@H](CN(C)S(=O)(=O)c2cn(C)cn2)O3)cc1", "cytotoxicity call": "inactive"},
      {"smiles": "C[C@@H]1CCCCO[C@@H](CN(C)C(=O)Nc2ccc(C(F)(F)F)cc2)[C@H](C)CN([C@@H](C)CO)C(=O)c2cc(NC(=O)c3ccncc3)ccc2O1", "cytotoxicity call": "inactive"},
      {"smiles": "C[C@@H]1CCCCO[C@@H](CN(C)C(=O)Nc2ccccc2)[C@H](C)CN([C@H](C)CO)C(=O)c2cc(NC(=O)Nc3ccc(C(F)(F)F)cc3)ccc2O1", "cytotoxicity call": "inactive"},
      {"smiles": "CCCCC(CC)COC(=O)c1ccccc1O", "note": "(stereo not given)", "cytotoxicity call": "inactive"},
      {"smiles": "C[C@@H]1CN([C@H](C)CO)C(=O)Cc2cc(NC(=O)Cc3ccccc3)ccc2O[C@H]1CN(C)Cc1ccc(Cl)c(Cl)c1", "cytotoxicity call": "inactive"},
      {"smiles": "CC(C)NC(=O)N(C)C[C@@H]1Oc2ccc(NS(=O)(=O)c3ccc(F)cc3)cc2C(=O)N([C@@H](C)CO)C[C@H]1C", "cytotoxicity call": "inactive"},
      {"smiles": "Cc1noc(C)c1S(=O)(=O)Nc1ccc2c(c1)C(=O)N([C@@H](C)CO)C[C@H](C)[C@@H](CN(C)C(=O)Nc1ccccc1)OCCCC[C@H](C)O2", "cytotoxicity call": "inactive"},
      {"smiles": "C[C@@H]1CN([C@@H](C)CO)C(=O)Cc2cc(NC(=O)CCN3CCOCC3)ccc2O[C@@H]1CN(C)Cc1ccc2c(c1)OCO2", "cytotoxicity call": "inactive"},
      {"smiles": "CC[C@@H](CN)Cc1ccccc1", "cytotoxicity call": "inactive"},
      {"smiles": "C[C@@H]1CN([C@H](C)CO)C(=O)c2cc(NC(=O)c3ccncc3)ccc2O[C@@H](C)CCCCO[C@H]1CN(C)S(=O)(=O)c1ccc(Cl)cc1", "cytotoxicity call": "inactive"},
      {"smiles": "C[C@@H]1CCCCO[C@@H](CN(C)C(=O)Nc2ccccc2)[C@H](C)CN([C@@H](C)CO)C(=O)c2cc(NC(=O)Nc3cccc4ccccc34)ccc2O1", "cytotoxicity call": "inactive"},
      {"smiles": "NC(=O)c1ccnc(Cl)c1", "cytotoxicity call": "inactive"},
      {"smiles": "C=CCNC(N)=S", "cytotoxicity call": "inactive"},
      {"smiles": "COC1C=COC2(C)Oc3c(C)c(O)c4c(O)c(c(C=NN5CCN(C6CCCC6)CC5)c(O)c4c3C2=O)NC(=O)C(C)=CC=CC(C)C(O)C(C)C(O)C(C)C(OC(C)=O)C1C", "note": "(stereo not given)", "cytotoxicity call": "inactive"},
      {"smiles": "COc1ccc(CN(C)C[C@@H]2Oc3ccc(NC(=O)C4CC4)cc3CC(=O)N([C@@H](C)CO)C[C@@H]2C)cc1", "cytotoxicity call": "inactive"},
      {"smiles": "C[C@H](CO)N1C[C@H](C)[C@H](CN(C)S(=O)(=O)c2ccccc2)Oc2ncc(-c3cccc(F)c3)cc2C1=O", "cytotoxicity call": "inactive"},
      {"smiles": "Cc1ccc(S(=O)(=O)Nc2ccc3c(c2)C(=O)N([C@@H](C)CO)C[C@@H](C)[C@H](CN(C)S(C)(=O)=O)O3)cc1", "cytotoxicity call": "inactive"},
      {"smiles": "CN1CCN(C(=O)C[C@H]2C[C@@H]3c4cc(NC(=O)c5ccc6c(c5)OCO6)ccc4O[C@@H]3[C@@H](CO)O2)CC1", "cytotoxicity call": "inactive"},
      {"smiles": "COc1ccc(NC(=O)Nc2ccc3c(c2)C(=O)N([C@@H](C)CO)C[C@H](C)[C@@H](CN(C)C(=O)Nc2c(C)noc2C)OCCCC[C@H](C)O3)cc1", "cytotoxicity call": "inactive"},
      {"smiles": "Cc1noc(C)c1NC(=O)Nc1ccc2c(c1)C(=O)N([C@H](C)CO)C[C@@H](C)[C@H](CN(C)C(=O)Nc1ccc(F)cc1)OCCCC[C@@H](C)O2", "cytotoxicity call": "inactive"},
      {"smiles": "CCS(=O)(=O)N1C[C@]2(CN(Cc3cccc(c3)Cl)[C@H](CO)c3c2c2ccc(cc2n3C)OC)C1", "cytotoxicity call": "inactive"},
      {"smiles": "Cc1noc(C)c1S(=O)(=O)N(C)C[C@@H]1OCCCC[C@H](C)Oc2ccc(NC(=O)Nc3cccc4ccccc34)cc2C(=O)N([C@H](C)CO)C[C@@H]1C", "cytotoxicity call": "inactive"},
      {"smiles": "CCc1nc2ccc(C(=O)NCc3ccc(OC)cc3)cn2c1N(CC)Cc1cccc(Br)c1", "cytotoxicity call": "inactive"},
      {"smiles": "C[C@@H]1CN([C@H](C)CO)C(=O)Cc2cc(NC(=O)C3CC3)ccc2O[C@@H]1CN(C)S(=O)(=O)c1ccccc1", "cytotoxicity call": "inactive"},
      {"smiles": "C[C@H](CO)N1C[C@H](C)[C@@H](CN(C)S(C)(=O)=O)OCCCC[C@H](C)Oc2ccc(NC(=O)CCCN(C)C)cc2C1=O", "cytotoxicity call": "inactive"},
      {"smiles": "C[C@@H]1CN([C@H](C)CO)C(=O)c2cc(NS(=O)(=O)c3ccc(Cl)cc3)ccc2O[C@@H]1CN(C)Cc1ccc(Cl)c(Cl)c1", "cytotoxicity call": "active"},
      {"smiles": "COc1ccc(CN(C)C[C@H]2Oc3ccc(NC(=O)Nc4cccc5ccccc45)cc3C(=O)N([C@@H](C)CO)C[C@H]2C)cc1", "cytotoxicity call": "inactive"}
    ]}
  ]
}
